# Measured values reported in the supplement of paper PMC7826260.
# The list shows a part of the results. Cleavage of a single-stranded DNA pool by Rep nickase domains was read by sequencing (3 µM enzyme, 1 h, 37 °C); shown is the middle of each 90-letter strand. Uncut reads are compared with the no-enzyme pool on a log2 scale; strong cutting gives strongly negative numbers. There is no active / inactive call. Counts are relative to all reads; where an enzyme cuts many sequences, the uncut ones exceed 0.
# Assays:
# Assay in all cases: uncleaved DNA left, log2 of reads against the no-enzyme library (log2 ratio); higher = less cleavage (more negative = more Rep cleavage of the k-mer); sequences stand for … in CTCGTCCG…ACCGGAGA
# [1] = test system: T1, Rep nickase domain of Muscovy duck circovirus
# T1 sequence (residues 1-111, tag not shown): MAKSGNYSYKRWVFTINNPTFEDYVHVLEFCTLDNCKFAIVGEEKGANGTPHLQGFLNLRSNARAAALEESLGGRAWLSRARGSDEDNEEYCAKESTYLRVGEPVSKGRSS
# Description: (§1)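 A pool of 90-nt single-stranded DNAs with seven random bases just before the constant AC of the nick site (name = the seven bases) was cut by 3 µM recombinant His6-SUMO-tagged Rep nickase domain (300 nM DNA, 50 mM HEPES pH 8.0, 50 mM NaCl, 1 mM MnCl2, 1 h, 37 °C, three replicates). Uncut DNA was amplified and sequenced.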
# [2] = test system: T2, Rep nickase domain of banana bunchy top virus
# T2 sequence (residues 1-94, tag not shown): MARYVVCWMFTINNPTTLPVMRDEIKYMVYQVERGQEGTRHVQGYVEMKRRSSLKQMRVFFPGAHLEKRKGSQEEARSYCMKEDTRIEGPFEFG
# Description: as §1
# [3] = test system: T3, Rep nickase domain of cabbage leaf curl virus
# T3 sequence (residues 1-116, tag not shown): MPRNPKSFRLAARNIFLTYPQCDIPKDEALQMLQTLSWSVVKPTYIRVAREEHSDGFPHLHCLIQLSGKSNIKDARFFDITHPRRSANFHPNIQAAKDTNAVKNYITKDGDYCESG
# Description: as §1
# [4] = test system: T4, Rep nickase domain of chickpea chlorotic dwarf virus
# T4 sequence (residues 1-124, tag not shown): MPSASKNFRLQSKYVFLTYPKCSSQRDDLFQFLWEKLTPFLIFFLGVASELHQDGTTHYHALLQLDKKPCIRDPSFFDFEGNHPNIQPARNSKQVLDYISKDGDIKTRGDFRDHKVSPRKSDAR
# Description: as §1
# [5] = test system: T5, Rep nickase domain of faba bean necrotic yellows virus
# T5 sequence (residues 1-98, tag not shown): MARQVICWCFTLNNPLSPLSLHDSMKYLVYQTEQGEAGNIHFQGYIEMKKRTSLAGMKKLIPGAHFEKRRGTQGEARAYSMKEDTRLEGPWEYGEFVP
# Description: as §1
# [6] = test system: T6, Rep nickase domain of maize striate mosaic virus
# T6 sequence (residues 1-117, tag not shown): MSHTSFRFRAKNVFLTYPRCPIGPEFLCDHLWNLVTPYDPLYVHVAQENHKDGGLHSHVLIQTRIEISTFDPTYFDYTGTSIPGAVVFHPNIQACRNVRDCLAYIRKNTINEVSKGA
# Description: as §1
# [7] = test system: T7, Rep nickase domain of porcine circovirus 2
# T7 sequence (residues 2-116, tag not shown): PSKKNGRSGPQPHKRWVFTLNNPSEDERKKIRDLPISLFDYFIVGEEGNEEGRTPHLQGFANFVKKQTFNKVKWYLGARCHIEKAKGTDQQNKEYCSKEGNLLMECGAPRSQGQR
# Description: as §1
# [8] = test system: T8, Rep nickase domain of tomato golden mosaic virus
# T8 sequence (residues 1-124, tag not shown): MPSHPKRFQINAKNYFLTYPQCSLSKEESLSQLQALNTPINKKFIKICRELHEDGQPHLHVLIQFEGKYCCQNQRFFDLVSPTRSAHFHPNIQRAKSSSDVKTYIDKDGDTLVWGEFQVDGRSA
# Description: as §1
# [9] = test system: T9, Rep nickase domain of tomato yellow leaf curl virus
# T9 sequence (residues 1-136, tag not shown): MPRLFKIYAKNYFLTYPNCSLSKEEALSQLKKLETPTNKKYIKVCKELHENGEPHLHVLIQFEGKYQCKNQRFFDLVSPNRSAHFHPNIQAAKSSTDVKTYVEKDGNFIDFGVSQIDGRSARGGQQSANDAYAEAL
# Description: as §1
# [10] = test system: T10, Rep nickase domain of wheat dwarf virus
# T10 sequence (residues 1-137, tag not shown): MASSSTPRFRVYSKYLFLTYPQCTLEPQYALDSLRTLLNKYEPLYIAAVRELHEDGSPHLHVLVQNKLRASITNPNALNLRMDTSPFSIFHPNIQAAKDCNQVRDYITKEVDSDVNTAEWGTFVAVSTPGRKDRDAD
# Description: as §1
Sequence,uncleaved DNA left (log2) [1],uncleaved DNA left (log2) [2],uncleaved DNA left (log2) [3],uncleaved DNA left (log2) [4],uncleaved DNA left (log2) [5],uncleaved DNA left (log2) [6],uncleaved DNA left (log2) [7],uncleaved DNA left (log2) [8],uncleaved DNA left (log2) [9],uncleaved DNA left (log2) [10]
GACACGA,0.0859,0.0821,-0.162,-0.143,-0.0014,-0.541,0.061,-0.112,-0.0382,0.00757
GCTTGCT,-0.099,-0.0238,-0.44,-0.44,-0.087,-0.874,-0.505,-0.0872,0.052,-0.0807
GCGTGCG,-0.137,-0.118,-0.655,0.782,-0.0926,0.0184,0.145,-0.203,-0.24,-0.287
CGATCCT,-0.601,-0.168,-0.124,-1.3,-0.156,-0.254,-0.787,-0.336,-0.0803,-0.112
CCCACTT,0.0482,-0.0626,-0.0526,-2.25,0.0866,-0.261,-0.201,0.00407,-0.128,-0.00611
GTTTTTG,0.0969,0.0694,0.222,0.521,0.123,0.53,0.16,0.148,0.0861,0.134
TAAACGG,0.146,0.206,0.602,1.68,0.0599,2.09,0.224,0.208,0.0822,0.241
CAGGAAA,0.123,0.061,0.275,1.08,0.0119,1.1,0.216,0.157,-0.0502,0.101
ATTATTG,0.0529,-0.0491,-0.589,-0.642,-0.0271,-1.43,0.12,0.00717,0.0403,-0.114
CCGAACG,0.0102,-0.134,-0.678,-0.379,-0.108,-1.05,0.21,-0.0545,-0.101,-0.264
TATCCGA,0.0113,0.0383,-0.151,-0.469,-0.109,-0.958,0.00643,-0.114,-0.0225,-0.0182
CTCTTCG,0.0114,-0.0124,-0.731,0.192,-0.0252,-0.888,0.147,0.0388,-0.0288,-0.172
CCGTGGT,-0.108,-0.0861,-0.941,-0.985,-0.0634,0.203,-2.44,-0.394,-0.0583,-1.29
GTTTTAC,-0.159,0.0311,0.325,0.745,0.0049,1.76,-0.107,0.0785,0.0469,0.131
TAGCTCT,0.00994,-0.0988,-1.51,-2.99,0.0204,-0.283,-3.32,-0.164,0.0535,-0.432
GTCCGCC,-0.0211,-0.0409,0.236,0.613,-0.0379,0.901,0.0189,-0.0517,0.0128,-0.0671
CGTATTT,0.111,-0.0245,0.0589,-1.69,-0.0806,-0.0559,-1.27,0.063,0.0907,0.0499
CCCATTC,0.0136,-0.044,-0.225,-0.312,-0.0207,-1.05,0.0736,-0.0978,-0.0582,-0.0479
GATATAA,0.0422,0.0222,0.199,0.603,0.0379,1.07,0.0879,0.106,0.0315,0.156
TTACTAT,0.0232,-0.0513,0.0444,-2.12,0.0439,-0.356,-0.294,-0.142,-0.000825,-0.0314
ACAGACG,0.152,0.173,-0.457,0.316,0.0139,-0.352,0.221,0.17,0.169,0.0999
AGCGCTC,0.0693,0.0309,0.097,0.534,0.0665,1.14,0.0166,0.0884,-0.0605,-0.0241
ATAACCG,0.0113,0.0222,-0.754,-0.926,0.112,-0.882,0.111,0.0758,-0.0226,-0.00945
GAGGACA,0.0254,0.127,0.9,2.17,0.0669,2.27,0.259,0.106,0.0515,0.223
TGGGAGC,0.156,0.17,0.731,1.59,0.083,1.88,0.317,0.0918,0.116,0.0882
GGCAAAG,0.31,0.309,0.266,0.588,0.12,0.144,0.281,0.258,0.148,0.354
GCCGGAC,0.109,-0.0899,0.703,1.72,0.0211,2.09,0.0203,0.124,-0.00178,0.0306
ATACAGG,0.015,0.0177,0.136,0.618,-0.0383,-0.0853,0.207,0.0442,-0.092,-0.0267
TTGCGGA,0.102,-0.0899,-0.583,-0.555,0.0628,-0.964,0.138,-0.0209,0.162,-0.0566
AGTCAAC,0.0439,0.0124,0.128,-0.784,-0.0254,-0.296,-0.121,-0.023,0.0786,0.0346
